{"source": "the supplement of paper PMC8728848", "experiment_in_all_cases": "glycan array binding signal (z-score within array); higher = stronger binding", "details_in_all_cases": "glycan notation: IUPAC condensed, linker removed", "key": {"[1]": {"target": "Gal(b1-4)GlcNAc(b1-2)Man(a1-3)[Gal(b1-4)GlcNAc(b1-2)Man(a1-6)]Man(b1-4)GlcNAc(b1-4)[Fuc(a1-6)]GlcNAc", "in_short": "(§1)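 Columns mapping to the same glycan were averaged after glycan names were converted to IUPAC-condensed notation. The data come from 3228 arrays in the Consortium for Functional Glycomics database, limited to those with an available protein sequence. Binding is reported as a within-array Z-score averaged across arrays of one protein sequence and across linkers.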"}, "[2]": {"target": "Gal(b1-4)GlcNAc(b1-2)Man(a1-3)[Gal(b1-4)GlcNAc(b1-2)Man(a1-6)][Gal(b1-4)GlcNAc(b1-4)]Man(b1-4)GlcNAc(b1-4)[Fuc(a1-6)]GlcNAc", "in_short": "as §1"}, "[3]": {"target": "Gal(b1-4)GlcNAc(b1-2)Man(a1-3)[Gal(b1-4)GlcNAc(b1-2)Man(a1-6)][GlcNAc(b1-4)]Man(b1-4)GlcNAc(b1-4)[Fuc(a1-6)]GlcNAc", "in_short": "as §1"}, "[4]": {"target": "Gal(b1-4)GlcNAc(b1-2)Man(a1-3)[GlcNAc(b1-2)Man(a1-6)]Man(b1-4)GlcNAc(b1-4)GlcNAc", "in_short": "as §1"}, "[5]": {"target": "Gal(b1-4)GlcNAc(b1-2)Man(a1-3)[GlcNAc(b1-4)][Gal(b1-4)GlcNAc(b1-2)Man(a1-6)]Man(b1-4)GlcNAc(b1-4)GlcNAc", "in_short": "as §1"}, "[6]": {"target": "Gal(b1-4)GlcNAc(b1-2)Man(a1-3)[Man(a1-6)]Man(b1-4)GlcNAc(b1-4)GlcNAc", "in_short": "as §1"}, "[7]": {"target": "Gal(b1-4)GlcNAc(b1-2)Man(a1-6)Man(b1-4)GlcNAc(b1-4)GlcNAc", "in_short": "as §1"}, "[8]": {"target": "Gal(b1-4)GlcNAc(b1-2)Man(a1-6)[GlcNAc(b1-2)Man(a1-3)]Man(b1-4)GlcNAc(b1-4)GlcNAc", "in_short": "as §1"}, "[9]": {"target": "Gal(b1-4)GlcNAc(b1-2)Man(a1-6)[Man(a1-3)]Man(b1-4)GlcNAc(b1-4)GlcNAc", "in_short": "as §1"}, "[10]": {"target": "Gal(b1-4)GlcNAc(b1-2)[Gal(b1-4)GlcNAc(b1-4)]Man(a1-3)[Gal(b1-4)GlcNAc(b1-2)Man(a1-6)]Man(b1-4)GlcNAc(b1-4)GlcNAc", "in_short": "as §1"}, "[11]": {"target": "Gal(b1-4)GlcNAc(b1-2)[Gal(b1-4)GlcNAc(b1-4)]Man(a1-3)[Gal(b1-4)GlcNAc(b1-2)[Gal(b1-4)GlcNAc(b1-6)]Man(a1-6)]Man(b1-4)GlcNAc(b1-4)GlcNAc", "in_short": "as §1"}, "[12]": {"target": "Gal(b1-4)GlcNAc(b1-2)[Gal(b1-4)GlcNAc(b1-4)]Man(a1-3)[GlcNAc(b1-4)][Gal(b1-4)GlcNAc(b1-2)Man(a1-6)]Man(b1-4)GlcNAc(b1-4)GlcNAc", "in_short": "as §1"}, "[13]": {"target": "Gal(b1-4)GlcNAc(b1-2)[Gal(b1-4)GlcNAc(b1-4)]Man(a1-3)[GlcNAc(b1-4)][Gal(b1-4)GlcNAc(b1-2)[Gal(b1-4)GlcNAc(b1-6)]Man(a1-6)]Man(b1-4)GlcNAc(b1-4)GlcNAc", "in_short": "as §1"}, "[14]": {"target": "Gal(b1-4)GlcNAc(b1-2)[Gal(b1-4)GlcNAc(b1-6)]Man(a1-6)[Gal(b1-4)GlcNAc(b1-2)Man(a1-3)]Man(b1-4)GlcNAc(b1-4)GlcNAc", "in_short": "as §1"}, "[15]": {"target": "Gal(b1-4)GlcNAc(b1-2)[Gal(b1-4)GlcNAc(b1-6)]Man(a1-6)[Gal(b1-4)GlcNAc(b1-2)Man(a1-3)]Man(b1-4)GlcNAc(b1-4)[Fuc(a1-6)]GlcNAc", "in_short": "as §1"}, "[16]": {"target": "Gal(b1-4)GlcNAc(b1-2)[Gal(b1-4)GlcNAc(b1-6)]Man(a1-6)[GlcNAc(b1-4)][Gal(b1-4)GlcNAc(b1-2)Man(a1-3)]Man(b1-4)GlcNAc(b1-4)GlcNAc", "in_short": "as §1"}, "[17]": {"target": "Gal(b1-4)GlcNAc(b1-2)[Gal(b1-4)GlcNAc(b1-6)]Man(a1-6)[GlcNAc(b1-4)][Gal(b1-4)GlcNAc(b1-2)[Gal(b1-4)GlcNAc(b1-4)]Man(a1-3)]Man(b1-4)GlcNAc(b1-4)[Fuc(a1-6)]GlcNAc", "in_short": "as §1"}, "[18]": {"target": "Gal(b1-4)GlcNAc(b1-3)Gal(b1-3)GalNAc", "in_short": "as §1"}, "[19]": {"target": "Gal(b1-4)GlcNAc(b1-3)Gal(b1-3)GlcNAc", "in_short": "as §1"}}, "note": "Some of the results follow.", "data": [{"binder": "Si Bti9 1b-V5-his (Solanum lycopersicum) (protein) MQCNRGCDLALASFYVWRGSNLTLISEMFSTSIADIVSYNNRDNIPNQDSVIAGTRINIPFRCDCLNDGEVLGHAFPYRVKSGDTYDLVARNYSDLTTAQWMMKFNSYPENNIPNTVNLSVVVNCSCGNSDVSKDFGLFVTYPVRAEDNLTSVASAANVSEDIIRRYNPAAVSILDIGQGIIYIPGRDRNGNFPPLPTSTDGLSGGAKKGGRADPAFLYKVVINSKLEGKPIPNPLLGLDSTRTGHHHHHH", "values": [{"measurement": "glycan array binding signal (z-score)", "setting": "[1]", "value": 0.401}, {"measurement": "glycan array binding signal (z-score)", "setting": "[2]", "value": -0.346}, {"measurement": "glycan array binding signal (z-score)", "setting": "[3]", "value": -0.389}, {"measurement": "glycan array binding signal (z-score)", "setting": "[4]", "value": -0.243}, {"measurement": "glycan array binding signal (z-score)", "setting": "[5]", "value": -0.102}, {"measurement": "glycan array binding signal (z-score)", "setting": "[6]", "value": -0.294}, {"measurement": "glycan array binding signal (z-score)", "setting": "[7]", "value": -0.183}, {"measurement": "glycan array binding signal (z-score)", "setting": "[8]", "value": -0.277}, {"measurement": "glycan array binding signal (z-score)", "setting": "[9]", "value": -0.273}, {"measurement": "glycan array binding signal (z-score)", "setting": "[10]", "value": -0.217}, {"measurement": "glycan array binding signal (z-score)", "setting": "[11]", "value": -0.237}, {"measurement": "glycan array binding signal (z-score)", "setting": "[12]", "value": -0.243}, {"measurement": "glycan array binding signal (z-score)", "setting": "[13]", "value": -0.196}, {"measurement": "glycan array binding signal (z-score)", "setting": "[14]", "value": -0.169}, {"measurement": "glycan array binding signal (z-score)", "setting": "[15]", "value": -0.189}, {"measurement": "glycan array binding signal (z-score)", "setting": "[16]", "value": -0.378}, {"measurement": "glycan array binding signal (z-score)", "setting": "[17]", "value": -0.309}, {"measurement": "glycan array binding signal (z-score)", "setting": "[18]", "value": -0.268}, {"measurement": "glycan array binding signal (z-score)", "setting": "[19]", "value": -0.249}]}]}
